The record followed here is patent publication US20250011380A1 (published 2025).

Experiment [1] addresses T1, human CD16b expressed on CHO cells (human, UniProt O75015 17-200).
T1 construct: CHO cells transfected with human CD16b in a pMC plasmid; also called CHO cells expressing human CD16b
T1 chain: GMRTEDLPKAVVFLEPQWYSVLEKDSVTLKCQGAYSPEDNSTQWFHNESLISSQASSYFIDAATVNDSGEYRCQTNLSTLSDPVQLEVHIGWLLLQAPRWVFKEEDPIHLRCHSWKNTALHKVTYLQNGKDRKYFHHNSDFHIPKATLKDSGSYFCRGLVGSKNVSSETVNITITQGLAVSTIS
As to the kind of experiment: flow cytometry on CHO cells stably expressing human CD16b; biotinylated anti-human tissue factor and PE conjugated streptavidin. For orientation: A flow cytometer gives signals particle by particle.

For experiment [2], the target named is T2, IL2Rαβγ on CTLL2 cells.
T2 sequence (P01590 whole entry, species assumed, looked up): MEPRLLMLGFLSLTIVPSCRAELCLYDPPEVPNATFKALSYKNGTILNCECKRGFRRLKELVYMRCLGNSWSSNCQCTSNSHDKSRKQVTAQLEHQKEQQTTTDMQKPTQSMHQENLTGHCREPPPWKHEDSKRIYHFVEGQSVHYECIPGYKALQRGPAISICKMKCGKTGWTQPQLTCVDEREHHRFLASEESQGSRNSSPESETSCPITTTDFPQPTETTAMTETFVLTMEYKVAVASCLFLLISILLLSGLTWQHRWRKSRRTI
T2 sequence (P16297 whole entry, species assumed, looked up): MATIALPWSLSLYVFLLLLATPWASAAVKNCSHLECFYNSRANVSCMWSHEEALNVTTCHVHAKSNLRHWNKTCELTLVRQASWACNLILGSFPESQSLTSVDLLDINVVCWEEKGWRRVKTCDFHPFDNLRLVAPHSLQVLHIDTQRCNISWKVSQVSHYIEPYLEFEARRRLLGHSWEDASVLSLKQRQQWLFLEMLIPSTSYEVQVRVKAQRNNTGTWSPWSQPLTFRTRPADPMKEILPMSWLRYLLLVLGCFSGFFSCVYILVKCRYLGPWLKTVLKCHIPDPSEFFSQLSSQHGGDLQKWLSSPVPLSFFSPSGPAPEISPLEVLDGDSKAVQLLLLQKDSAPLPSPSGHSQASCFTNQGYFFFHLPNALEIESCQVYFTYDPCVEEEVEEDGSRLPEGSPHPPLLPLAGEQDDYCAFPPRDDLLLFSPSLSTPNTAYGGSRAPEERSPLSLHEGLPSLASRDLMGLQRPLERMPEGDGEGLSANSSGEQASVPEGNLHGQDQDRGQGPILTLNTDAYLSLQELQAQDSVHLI
T2 sequence (P34902 whole entry, species assumed, looked up): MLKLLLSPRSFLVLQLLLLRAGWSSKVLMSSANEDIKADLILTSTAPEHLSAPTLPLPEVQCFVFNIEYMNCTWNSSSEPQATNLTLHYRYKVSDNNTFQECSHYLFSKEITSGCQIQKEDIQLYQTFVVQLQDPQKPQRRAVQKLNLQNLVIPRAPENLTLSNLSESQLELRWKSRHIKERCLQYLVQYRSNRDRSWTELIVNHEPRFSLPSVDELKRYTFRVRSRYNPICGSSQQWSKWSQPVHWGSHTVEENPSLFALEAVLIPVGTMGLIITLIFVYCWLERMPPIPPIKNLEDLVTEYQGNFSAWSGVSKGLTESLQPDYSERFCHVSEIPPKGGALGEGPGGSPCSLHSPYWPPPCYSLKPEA
Nature of the experiment: cell-based or functional assay.

The target in experiment [3] is IL-2Rβ and common γ chain on 32Dβ cells. Nature of the experiment: cell-based or functional assay.
The target of experiment [4] is TGF-β1 (UniProt P01137 in part). As to the kind of experiment: cell-based or functional assay.

Sequence of TGF-β1 (P01137 279-390 limits assumed): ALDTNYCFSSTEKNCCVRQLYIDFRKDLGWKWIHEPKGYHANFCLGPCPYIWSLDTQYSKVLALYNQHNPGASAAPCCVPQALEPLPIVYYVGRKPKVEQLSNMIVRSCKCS

B1: IL-18/TF/IL-15:IL-12/IL-15RαSu protein complex (other)
chain 1: not shown
chain 2: IWELKKDVYVVELDWYPDAPGEMVVLTCDTPEEDGITWTLDQSSEVLGSGKTLTIQVKEFGDAGQYTCHKGGEVLSHSLLLLHKKEDGIWSTDILKDQKEPKNKTFLRCEAKNYSGRFTCWWLTTISTDLTFSVKSSRGSSDPQGVTCGAATLSAERVRGDNKEYEYSVECQEDSACPAAEESLPIEVMVDAVHKLKYENYTSSFFIRDIIKPDPPKNLQLKPLKNSRQVEVSWEYPDTWSTPHSYFSLTFCVQVQGKSKREKKDRVFTDKTSATVICRKNASISVRAQDRYYSSSWSEWASVPCSGGGGSGGGGSGGGGSRNLPVATPDPGMFPCLHHSQNLLRAVSNMLQKARQTLEFYPCTSEEIDHEDITKDKTSTVEACLPLELTKNESCLNSRETSFITNGSCLASRKTSFMMALCLSSIYEDLKMYQVEFKTMNAKLLMDPKRQIFLDQNMLAVIDELMQALNFNSETVPQKSSLEEPDFYKTKIKLCILLHAFRIRAVTIDRVMSYLNASITCPPPMSVEHADIWVKSYSLYSRERYICNSGFKRKAGTSSLTECVLNKATNVAHWTTPSLKCIR
notes: Two-chain complex secreted from CHO-K1 cells, glycosylated; chains associate through IL-15 and the IL-15Rα sushi domain; also called 18t15-12s
B1: the binding result in experiment [1] is reported as “no binding (tested: 1.2 µg/mL)”.

B2: IL-2/TF/IL-2 single-chain chimeric polypeptide (other)
chain: [… about 150 residues …]SGTTNTVAAYNLTWKSTNFKTILEWEPKPVNQVYTVQISTKSGDWKSKCFYTTDTECDLTDEIVKDVKQTYLARVFSYPAGNVESTGSAGEPLYENSPEFTPYLETNLGQPTIQSFEQVGTKVNVTVEDERTLVRRNNTFLSLRDVFGKDLIYTLYYWKSSSSGKKTAKTNTNEFLIDVDKGENYCFSVQAVIPSRTVNRKSTDSPVECMGQEKGEFRE[… about 150 residues …]
As for B2, the “EC50, CTLL-2 cell proliferation (WST1)” value in experiment [2] amounted to 0.123 nM. Further, the “EC50, 32Dβ cell proliferation (WST1)” value in experiment [3] was found to be 0.158 nM.

B3: IL-15/TF/IL-15 single-chain chimeric polypeptide (other)
chain: [… about 120 residues …]SGTTNTVAAYNLTWKSTNFKTILEWEPKPVNQVYTVQISTKSGDWKSKCFYTTDTECDLTDEIVKDVKQTYLARVFSYPAGNVESTGSAGEPLYENSPEFTPYLETNLGQPTIQSFEQVGTKVNVTVEDERTLVRRNNTFLSLRDVFGKDLIYTLYYWKSSSSGKKTAKTNTNEFLIDVDKGENYCFSVQAVIPSRTVNRKSTDSPVECMGQEKGEFRE[… about 120 residues …]
On to B3, for which the “EC50, 32Dβ cell proliferation (WST1)” value in experiment [3] worked out at 0.161 nM.

B4: IL-7/TF/IL-15:TGFβ Receptor II/IL-15RαSu protein complex (other)
chain 1: not shown
chain 2: IPPHVQKSVNNDMIVTDNNGAVKFPQLCKFCDVRFSTCDNQKSCMSNCSITSICEKPQEVCVAVWRKNDENITLETVCHDPKLPYHDFILEDAASPKCIMKEKKKPGETFFMCSCSSDECNDNIIFSEEYNTSNPDGGGGSGGGGSGGGGSIPPHVQKSVNNDMIVTDNNGAVKFPQLCKFCDVRFSTCDNQKSCMSNCSITSICEKPQEVCVAVWRKNDENITLETVCHDPKLPYHDFILEDAASPKCIMKEKKKPGETFFMCSCSSDECNDNIIFSEEYNTSNPDITCPPPMSVEHADIWVKSYSLYSRERYICNSGFKRKAGTSSLTECVLNKATNVAHWTTPSLKCIR
As to B4, the “IC50, HEK-Blue TGFβ reporter cells, 0.1 nM TGFβ1” value in experiment [4] is 1.14 nM. Further, in experiment [3], the “EC50, 32Dβ cell proliferation (WST1)” value came out at 126 nM.

B5: TGFR/IL15RαSu-TGFR/TF/IL-15D8N protein complex (other)
chain 1: IPPHVQKSVNNDMIVTDNNGAVKFPQLCKFCDVRFSTCDNQKSCMSNCSITSICEKPQEVCVAVWRKNDENITLETVCHDPKLPYHDFILEDAASPKCIMKEKKKPGETFFMCSCSSDECNDNIIFSEEYNTSNPDGGGGSGGGGSGGGGSIPPHVQKSVNNDMIVTDNNGAVKFPQLCKFCDVRFSTCDNQKSCMSNCSITSICEKPQEVCVAVWRKNDENITLETVCHDPKLPYHDFILEDAASPKCIMKEKKKPGETFFMCSCSSDECNDNIIFSEEYNTSNPDSGTTNTVAAYNLTWKSTNFKTILEWEPKPVNQVYTVQISTKSGDWKSKCFYTTDTECDLTDEIVKDVKQTYLARVFSYPAGNVESTGSAGEPLYENSPEFTPYLETNLGQPTIQSFEQVGTKVNVTVEDERTLVRRNNTFLSLRDVFGKDLIYTLYYWKSSSSGKKTAKTNTNEFLIDVDKGENYCFSVQAVIPSRTVNRKSTDSPVECMGQEKGEFRE[… about 120 residues with changes …]
chain 2: IPPHVQKSVNNDMIVTDNNGAVKFPQLCKFCDVRFSTCDNQKSCMSNCSITSICEKPQEVCVAVWRKNDENITLETVCHDPKLPYHDFILEDAASPKCIMKEKKKPGETFFMCSCSSDECNDNIIFSEEYNTSNPDGGGGSGGGGSGGGGSIPPHVQKSVNNDMIVTDNNGAVKFPQLCKFCDVRFSTCDNQKSCMSNCSITSICEKPQEVCVAVWRKNDENITLETVCHDPKLPYHDFILEDAASPKCIMKEKKKPGETFFMCSCSSDECNDNIIFSEEYNTSNPDITCPPPMSVEHADIWVKSYSLYSRERYICNSGFKRKAGTSSLTECVLNKATNVAHWTTPSLKCIR
With B5, the “IC50, HEK-Blue TGF-β cells, 0.1 nM TGF-β1” value in experiment [4] is 0.0452 nM.

B6: TGFR/TF/IL-15:CD16scFv/IL-15RαSu/IL-21 protein complex (other)
chain 1: IPPHVQKSVNNDMIVTDNNGAVKFPQLCKFCDVRFSTCDNQKSCMSNCSITSICEKPQEVCVAVWRKNDENITLETVCHDPKLPYHDFILEDAASPKCIMKEKKKPGETFFMCSCSSDECNDNIIFSEEYNTSNPDGGGGSGGGGSGGGGSIPPHVQKSVNNDMIVTDNNGAVKFPQLCKFCDVRFSTCDNQKSCMSNCSITSICEKPQEVCVAVWRKNDENITLETVCHDPKLPYHDFILEDAASPKCIMKEKKKPGETFFMCSCSSDECNDNIIFSEEYNTSNPDSGTTNTVAAYNLTWKSTNFKTILEWEPKPVNQVYTVQISTKSGDWKSKCFYTTDTECDLTDEIVKDVKQTYLARVFSYPAGNVESTGSAGEPLYENSPEFTPYLETNLGQPTIQSFEQVGTKVNVTVEDERTLVRRNNTFLSLRDVFGKDLIYTLYYWKSSSSGKKTAKTNTNEFLIDVDKGENYCFSVQAVIPSRTVNRKSTDSPVECMGQEKGEFRE[… about 120 residues …]
chain 2: not shown
B6: the “IC50, HEK-Blue TGFβ reporter cells, 0.1 nM TGFβ1” value in experiment [4] stood at 9.13 nM. Besides, the “EC50, 32Dβ cell proliferation (WST1)” value in experiment [3] turned out to be 51.3 nM.
